Like-named read-outs stand apart in the source and are kept apart here. Values belong to the binder of their own block, whether it stands above or below them.
Legend:
[1] = target: T1, Aβ1-42 (rPeptide, A-1167-2) (UniProt P05067 fragment); test: direct ELISA, coated Aβ1-42
T1 construct: domain: Aβ1-42; also called Abeta 1-42
Experimental: (§1) Direct ELISA was used to test each antibody's affinity for Aβ₁₋₄₂ and pyroglutamate-modified Aβ (Aβₚ₃₋₄₂). Plates were coated with 0.5 μM of Aβ₁₋₄₂ (rPeptide, A-1167-2) or Aβₚ₃₋₄₂ (AnaSpec, AS-29907-01) for 2 h at 4° C. Diluents of antibodies (3-fold serial dilutions with concentrations in the range of 0-100 nM) were added to the plate for 1 h at RT. Binding of antibody to immobilized Aβ on each plate was detected by HRP-labeled secondary antibody and TMB substrate, as described in Example 2.

[2] = target: T2, biotin-labelled Aβ1-40 monomer (AnaSpec, AS-61483-01) (UniProt P05067 fragment, biotin label, position not stated); test: capture ELISA, coated antibody, biotin-Aβ1-40 monomer
T2 construct: domain: Aβ1-40; also called biotin-conjugated Aβ40 monomer; biotin-Aβ monomer
Experimental: A 96-well plate was coated with 5 μg/mL of antibodies overnight at RT. The plate was then treated with diluents of biotin-labelled Aβ₁₋₄₀ monomers (AnaSpec, AS-61483-01, 4-fold serial dilutions with concentrations in the range of 0-1000 nM) for 1 h at RT. The binding of biotin-labelled Aβ₁₋₄₀ monomers with immobilized antibody was detected by HRP-conjugated streptavidin and TMB, as described in Example 2.

[3] = target: HiLyte488 labelled Aβ1-42 protofibrils (UniProt P05067 fragment, HiLyte488 fluorophore on part of the peptides (labelled and unlabelled Aβ1-42 monomers mixed 1:5)); test: cell-based or functional assay
[4] = target: T3, pyroglutamate-modified Aβ (Aβp3-42) (AnaSpec, AS-29907-01) (UniProt P05067 fragment, pyroglutamate at Aβ position 3 (the N-terminus)); test: direct ELISA, coated Aβp3-42
T3 construct: domain: Aβp3-42; also called Abeta p3-42
Experimental: as §1

[5] = target: T1, Aβ1-42 (rPeptide, A-1167-2); test: direct ELISA, coated Aβ1-42; remark: listed apart in the source
[6] = target: T4, Aβ1-42 protofibril (UniProt P05067 fragment); test: ratio of competitive ELISA IC50s, monomer as reference
T4 construct: domain: Aβ1-42; soluble multimer of Aβ1-42; also called Aβ protofibril; Aβ protofibrils
From the text: The binding was detected by HRP-labeled secondary antibody and TMB substrate, as described in Example 2.

[7] = target: T2, biotin-labelled Aβ1-40 monomer …; test: capture ELISA, coated antibody, biotin-Aβ1-40 monomer; remark: listed apart in the source
[8] = target: T1, Aβ1-42 (rPeptide, A-1167-2); test: direct ELISA, coated Aβ1-42; remark: listed apart in the source
[9] = target: T3, pyroglutamate-modified Aβ (Aβp3-42) …; test: direct ELISA, coated Aβp3-42; remark: listed apart in the source

B1: 21K12A (antibody, V domains shown)
VH: [letters of about 100 residues with changes not shown]GYGEGYWGQGTLVTVSS
VL: QSVLTQPPSASGTPGQRVTISCSGSSSNIKSNTVNWYQQLPGTAPKLLIYRNNQRPSGVPDRFSGSKSGTSASLAISGLQSEDEADYYCAAWDDSLKGVVFGGGTDLTVL
EC50 [1]: 0.037 nM
EC50 [2]: 0.87 nM
ADCP (RFU) [3]: 524000 RFU

B2: 06E17A (mIgG1) (antibody, V domains shown)
VH: [letters of about 100 residues with changes not shown]GYGEGYWGQGTLVTVSS
VL: QSVLTQPPSASGTPGQRVTISCSGSSSNIKSNTVNWYQQLPGTAPKLLIYRNNQRPSGVPDRFSGSKSGTSASLAISGLQSEDEADYYCAAWDDSLKGVVFGGGTDLTVL
notes: chimeric: fully human F(ab')2, mouse IgG1 CH2-CH3; also called Chimeric mouse 06E17A (mlgG1)
EC50 [4]: > 50 nM
EC50 [5]: 0.052 nM
ratio of IC50 monomer to IC50 protofibril [6]: > 300 fold
EC50 [7]: 0.02 nM
EC50 [1]: 0.052 nM
EC50 [2]: 0.02 nM
EC50 [8]: < 0.1 nM
ADCP (RFU) [3]: 301000 RFU

B3: 21P22A (antibody, V domains shown)
VH: not shown
VL: QSVLTQPPSASGTPGQRVTISCSGSSSNIKSNTVNWYQQLPGTAPKLLIYRNNQRPSGVPDRFSGSKSGTSASLAISGLQSEDEADYYCAAWDDSLKGVVFGGGTDLTVL
EC50 [2]: 1.18 nM
ADCP (RFU) [3]: 502000 RFU

B6: 06E17A(hIgG1) (antibody, V domains shown)
VH: [letters of about 100 residues with changes not shown]GYGEGYWGQGTLVTVSS
VL: QSVLTQPPSASGTPGQRVTISCSGSSSNIKSNTVNWYQQLPGTAPKLLIYRNNQRPSGVPDRFSGSKSGTSASLAISGLQSEDEADYYCAAWDDSLKGVVFGGGTDLTVL
notes: fully human IgG1 lambda, expressed in CHO cells; its lambda constant region is not tied to a number; also called Fully human 06E17A
EC50 [5]: 0.062 nM
EC50 [9]: 321 nM
EC50 [7]: 0.15 nM

Next, values leading:

EC50 [4]: > 50 nM
EC50 [5]: 0.035 nM
ratio of IC50 monomer to IC50 protofibril [6]: > 300 fold
EC50 [9]: 51.2 nM
EC50 [7]: 1 nM
EC50 [1]: 0.035 nM
EC50 [2]: 1.05 nM
EC50 [8]: < 0.1 nM
ADCP (RFU) [3]: 547000 RFU
B4: 22D04A (mIgG1) (antibody, V domains shown)
VH: [letters of about 100 residues with changes not shown]GYGEGYWGQGTLVTVSS
VL: QSVLTQPPSASGTPGQRVTISCSGSSSNIKSNTVNWYQQLPGTAPKLLIYRNNQRPSGVPDRFSGSKSGTSASLAISGLQSEDEADYYCAAWDDSLKGVVFGGGTDLTVL
notes: chimeric: fully human F(ab')2, mouse IgG1 CH2-CH3; also called 22D4A; Chimeric mouse 22D04A (mlgG1)

EC50 [5]: 0.065 nM
EC50 [9]: 18.5 nM
EC50 [7]: 0.2 nM
B5: 22D04A(hIgG1) (antibody, V domains shown)
VH: [letters of about 100 residues not shown]GYGEGYWGQGTLVTVSS
VL: QSVLTQPPSASGTPGQRVTISCSGSSSNIKSNTVNWYQQLPGTAPKLLIYRNNQRPSGVPDRFSGSKSGTSASLAISGLQSEDEADYYCAAWDDSLKGVVFGGGTDLTVLG
notes: fully human IgG1 lambda, expressed in CHO cells; also called Fully human 22D04A

Source: patent publication US20240301046A1 (MABWELL THERAPEUTICS, published 2024)
